± gives the standard deviation of the averaged measurements. Laboratory Escherichia coli strains with one amino-acid change in an essential protein, pooled on minimal glucose agar with carbenicillin or gentamicin at twice the control MIC (plus kanamycin and chloramphenicol for the plasmids), 48 h. Fold change of barcode share against drug-free plates; higher = less susceptible. Active = above 20 in both replicates (the paper's putatively resistant). '<' = one read or none on drug, '>' = one read or none on a drug-free plate. Shares are relative, so most strains fall below 1 when a few take over. Listed are strains with at least 15 reads on both drug-free plates, and hits; most hits rest on fewer reference reads. Replicate rank correlation about 0.5. Edits are read from barcodes.

B1: accD V121D (protein)
chain: MSWIERIKSNITPTRKASIPEGVWTKCDSCGQVLYRAELERNLEVCPKCDHHMRMTARNRLHSLLDEGSLVELGSELEPKDVLKFRDSKKYKDRLASAQKETGEKDALVVMKGTLYGMPVDAAAFEFAFMGGSMGSVVGARFVRAVEQALEDNCPLICFSASGGARMQEALMSLMQMAKTSAALAKMQERGLPYISVLTDPTMGGVSASFAMLGDLNIAEPKALIGFAGPRVIEQTVREKLPPGFQRSEFLIEKGAIDMIVRRPEMRLKLASILAKLMNLPAPNPEAPREGVVVPPVPDQEPEA
B2: thrS L78A (protein)
chain: MPVITLPDGSQRHYDHAVSPMDVALDIGPGLAKACIAGRVNGELVDACDLIENDAQLSIITAKDEEGLEIIRHSCAHALGHAIKQLWPHTKMAIGPVIDNGFYYDVDLDRTLTQEDVEALEKRMHELAEKNYDVIKKKVSWHEARETFANRGESYKVSILDENIAHDDKPGLYFHEEYVDMCRGPHVPNMRFCHHFKLMKTAGAYWRGDSNNKMLQRIYGTAWADKKALNAYLQRLEEAAKRDHRKIGKQLDLYHMQEEAPGMVFWHNDGWTIFRELEVFVRSKLKEYQYQEVKGPFMMDRVLWEKTGHWDNYKDAMFTTSSENREYCIKPMNCPGHVQIFNQGLKSYRDLPLRMAEFGSCHRNEPSGSLHGLMRVRGFTQDDAHIFCTEEQIRDEVNGCIRLVYDMYSTFGFEKIVVKLSTRPEKRIGSDEMWDRAEADLAVALEENNIPFEYQLGEGAFYGPKIEFTLYDCLDRAWQCGTVQLDFSLPSRLSASYVGEDNERKVPVMIHRAILGSMERFIGILTEEFAGFFPTWLAPVQVVIMNITDSQSEYVNELTQKLSNAGIRVKADLRNEKIGFKIREHTLRRVPYMLVCGDKEVESGKVAVRTRRGKDLGSMDVNEVIEKLQQEIRSRSLKQLEE
B3: thrS L79A (protein)
chain: MPVITLPDGSQRHYDHAVSPMDVALDIGPGLAKACIAGRVNGELVDACDLIENDAQLSIITAKDEEGLEIIRHSCAHLAGHAIKQLWPHTKMAIGPVIDNGFYYDVDLDRTLTQEDVEALEKRMHELAEKNYDVIKKKVSWHEARETFANRGESYKVSILDENIAHDDKPGLYFHEEYVDMCRGPHVPNMRFCHHFKLMKTAGAYWRGDSNNKMLQRIYGTAWADKKALNAYLQRLEEAAKRDHRKIGKQLDLYHMQEEAPGMVFWHNDGWTIFRELEVFVRSKLKEYQYQEVKGPFMMDRVLWEKTGHWDNYKDAMFTTSSENREYCIKPMNCPGHVQIFNQGLKSYRDLPLRMAEFGSCHRNEPSGSLHGLMRVRGFTQDDAHIFCTEEQIRDEVNGCIRLVYDMYSTFGFEKIVVKLSTRPEKRIGSDEMWDRAEADLAVALEENNIPFEYQLGEGAFYGPKIEFTLYDCLDRAWQCGTVQLDFSLPSRLSASYVGEDNERKVPVMIHRAILGSMERFIGILTEEFAGFFPTWLAPVQVVIMNITDSQSEYVNELTQKLSNAGIRVKADLRNEKIGFKIREHTLRRVPYMLVCGDKEVESGKVAVRTRRGKDLGSMDVNEVIEKLQQEIRSRSLKQLEE
B4: thrS L79W (protein)
chain: MPVITLPDGSQRHYDHAVSPMDVALDIGPGLAKACIAGRVNGELVDACDLIENDAQLSIITAKDEEGLEIIRHSCAHLWGHAIKQLWPHTKMAIGPVIDNGFYYDVDLDRTLTQEDVEALEKRMHELAEKNYDVIKKKVSWHEARETFANRGESYKVSILDENIAHDDKPGLYFHEEYVDMCRGPHVPNMRFCHHFKLMKTAGAYWRGDSNNKMLQRIYGTAWADKKALNAYLQRLEEAAKRDHRKIGKQLDLYHMQEEAPGMVFWHNDGWTIFRELEVFVRSKLKEYQYQEVKGPFMMDRVLWEKTGHWDNYKDAMFTTSSENREYCIKPMNCPGHVQIFNQGLKSYRDLPLRMAEFGSCHRNEPSGSLHGLMRVRGFTQDDAHIFCTEEQIRDEVNGCIRLVYDMYSTFGFEKIVVKLSTRPEKRIGSDEMWDRAEADLAVALEENNIPFEYQLGEGAFYGPKIEFTLYDCLDRAWQCGTVQLDFSLPSRLSASYVGEDNERKVPVMIHRAILGSMERFIGILTEEFAGFFPTWLAPVQVVIMNITDSQSEYVNELTQKLSNAGIRVKADLRNEKIGFKIREHTLRRVPYMLVCGDKEVESGKVAVRTRRGKDLGSMDVNEVIEKLQQEIRSRSLKQLEE
B5: thrS I218A (protein)
chain: MPVITLPDGSQRHYDHAVSPMDVALDIGPGLAKACIAGRVNGELVDACDLIENDAQLSIITAKDEEGLEIIRHSCAHLLGHAIKQLWPHTKMAIGPVIDNGFYYDVDLDRTLTQEDVEALEKRMHELAEKNYDVIKKKVSWHEARETFANRGESYKVSILDENIAHDDKPGLYFHEEYVDMCRGPHVPNMRFCHHFKLMKTAGAYWRGDSNNKMLQRAYGTAWADKKALNAYLQRLEEAAKRDHRKIGKQLDLYHMQEEAPGMVFWHNDGWTIFRELEVFVRSKLKEYQYQEVKGPFMMDRVLWEKTGHWDNYKDAMFTTSSENREYCIKPMNCPGHVQIFNQGLKSYRDLPLRMAEFGSCHRNEPSGSLHGLMRVRGFTQDDAHIFCTEEQIRDEVNGCIRLVYDMYSTFGFEKIVVKLSTRPEKRIGSDEMWDRAEADLAVALEENNIPFEYQLGEGAFYGPKIEFTLYDCLDRAWQCGTVQLDFSLPSRLSASYVGEDNERKVPVMIHRAILGSMERFIGILTEEFAGFFPTWLAPVQVVIMNITDSQSEYVNELTQKLSNAGIRVKADLRNEKIGFKIREHTLRRVPYMLVCGDKEVESGKVAVRTRRGKDLGSMDVNEVIEKLQQEIRSRSLKQLEE
B6: thrS L79D (protein)
chain: MPVITLPDGSQRHYDHAVSPMDVALDIGPGLAKACIAGRVNGELVDACDLIENDAQLSIITAKDEEGLEIIRHSCAHLDGHAIKQLWPHTKMAIGPVIDNGFYYDVDLDRTLTQEDVEALEKRMHELAEKNYDVIKKKVSWHEARETFANRGESYKVSILDENIAHDDKPGLYFHEEYVDMCRGPHVPNMRFCHHFKLMKTAGAYWRGDSNNKMLQRIYGTAWADKKALNAYLQRLEEAAKRDHRKIGKQLDLYHMQEEAPGMVFWHNDGWTIFRELEVFVRSKLKEYQYQEVKGPFMMDRVLWEKTGHWDNYKDAMFTTSSENREYCIKPMNCPGHVQIFNQGLKSYRDLPLRMAEFGSCHRNEPSGSLHGLMRVRGFTQDDAHIFCTEEQIRDEVNGCIRLVYDMYSTFGFEKIVVKLSTRPEKRIGSDEMWDRAEADLAVALEENNIPFEYQLGEGAFYGPKIEFTLYDCLDRAWQCGTVQLDFSLPSRLSASYVGEDNERKVPVMIHRAILGSMERFIGILTEEFAGFFPTWLAPVQVVIMNITDSQSEYVNELTQKLSNAGIRVKADLRNEKIGFKIREHTLRRVPYMLVCGDKEVESGKVAVRTRRGKDLGSMDVNEVIEKLQQEIRSRSLKQLEE
B7: thrS L79Q (protein)
chain: MPVITLPDGSQRHYDHAVSPMDVALDIGPGLAKACIAGRVNGELVDACDLIENDAQLSIITAKDEEGLEIIRHSCAHLQGHAIKQLWPHTKMAIGPVIDNGFYYDVDLDRTLTQEDVEALEKRMHELAEKNYDVIKKKVSWHEARETFANRGESYKVSILDENIAHDDKPGLYFHEEYVDMCRGPHVPNMRFCHHFKLMKTAGAYWRGDSNNKMLQRIYGTAWADKKALNAYLQRLEEAAKRDHRKIGKQLDLYHMQEEAPGMVFWHNDGWTIFRELEVFVRSKLKEYQYQEVKGPFMMDRVLWEKTGHWDNYKDAMFTTSSENREYCIKPMNCPGHVQIFNQGLKSYRDLPLRMAEFGSCHRNEPSGSLHGLMRVRGFTQDDAHIFCTEEQIRDEVNGCIRLVYDMYSTFGFEKIVVKLSTRPEKRIGSDEMWDRAEADLAVALEENNIPFEYQLGEGAFYGPKIEFTLYDCLDRAWQCGTVQLDFSLPSRLSASYVGEDNERKVPVMIHRAILGSMERFIGILTEEFAGFFPTWLAPVQVVIMNITDSQSEYVNELTQKLSNAGIRVKADLRNEKIGFKIREHTLRRVPYMLVCGDKEVESGKVAVRTRRGKDLGSMDVNEVIEKLQQEIRSRSLKQLEE
B8: thrS I218W (protein)
chain: MPVITLPDGSQRHYDHAVSPMDVALDIGPGLAKACIAGRVNGELVDACDLIENDAQLSIITAKDEEGLEIIRHSCAHLLGHAIKQLWPHTKMAIGPVIDNGFYYDVDLDRTLTQEDVEALEKRMHELAEKNYDVIKKKVSWHEARETFANRGESYKVSILDENIAHDDKPGLYFHEEYVDMCRGPHVPNMRFCHHFKLMKTAGAYWRGDSNNKMLQRWYGTAWADKKALNAYLQRLEEAAKRDHRKIGKQLDLYHMQEEAPGMVFWHNDGWTIFRELEVFVRSKLKEYQYQEVKGPFMMDRVLWEKTGHWDNYKDAMFTTSSENREYCIKPMNCPGHVQIFNQGLKSYRDLPLRMAEFGSCHRNEPSGSLHGLMRVRGFTQDDAHIFCTEEQIRDEVNGCIRLVYDMYSTFGFEKIVVKLSTRPEKRIGSDEMWDRAEADLAVALEENNIPFEYQLGEGAFYGPKIEFTLYDCLDRAWQCGTVQLDFSLPSRLSASYVGEDNERKVPVMIHRAILGSMERFIGILTEEFAGFFPTWLAPVQVVIMNITDSQSEYVNELTQKLSNAGIRVKADLRNEKIGFKIREHTLRRVPYMLVCGDKEVESGKVAVRTRRGKDLGSMDVNEVIEKLQQEIRSRSLKQLEE
B9: can V81A (protein)
chain: MKDIDTLISNNALWSKMLVEEDPGFFEKLAQAQKPRFLWIGCSDSRVPAERLTGLEPGELFVHRNVANLVIHTDLNCLSVAQYAVDVLEVEHIIICGHYGCGGVQAAVENPELGLINNWLLHIRDIWFKHSSLLGEMPQERRLDTLCELNVMEQVYNLGHSTIMQSAWKRGQKVTIHGWAYGIHDGLLRDLDVTATNRETLEQRYRHGISNLKLKHANHK

The first data set addresses Escherichia coli (laboratory strain). In words: barcode share on antibiotic plates over drug-free plates; higher = less susceptible. The conditions noted are these: antibiotic: carbenicillin; 2× MIC (3.1 µg/mL). As to the method: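 A pool of E. coli strains, each edited to carry one amino-acid change in an essential protein, was grown for 48 h on minimal glucose agar with or without antibiotic; strain barcodes were sequenced; mean of two replicates.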
On to B1, for which the “fold change of barcode share” value is 0.546 ± 0.18.

Turning to B2, the “fold change of barcode share” value is 0.343 ± 0.038.

As to B3, the “fold change of barcode share” value was determined as 0.348 ± 0.028.

For the protein B4, the “fold change of barcode share” value amounted to 0.429 ± 0.087.

Consider B5, for which the “fold change of barcode share” value amounted to 0.413 ± 0.23.

As to B6, the “fold change of barcode share” value stood at 0.259 ± 0.034.

For B7, the “fold change of barcode share” value was found to be 0.2759 ± 0.0023.

In the case of B8, the “fold change of barcode share” value was found to be 0.476 ± 0.18.

With B9, the “fold change of barcode share” value was 0.272 ± 0.02.

The data set is the same for the next values; noted with them: antibiotic: gentamicin; 2× MIC (MIC 0.45 µg/mL).
Turning to B1, the “fold change of barcode share” value was < 0.00758.

As for B2, the “fold change of barcode share” value turned out to be 0.0131 ± 0.013.

With B3, the “fold change of barcode share” value was 0.00602 ± 0.0039.

On to B4, for which the “fold change of barcode share” value was < 0.0116.

For the protein B5, the “fold change of barcode share” value was 0.0117 ± 0.0088.

Consider B6, for which the “fold change of barcode share” value was < 0.00682.

With B7, the “fold change of barcode share” value came out at 0.00454 ± 0.0021.

With B8, the “fold change of barcode share” value was < 0.00214.

For B9, the “fold change of barcode share” value came out at 0.00395 ± 0.0026.

The record behind these values is the supplement of paper PMC11876631.
